Among all 110,000 compounds or so, about 230 (0.21%) showed an effect of 50% or more. The list shows a part of the results.
Each molecule was assayed against DPAP1 (Plasmodium falciparum, UniProt Q8IIJ9) (assay: primary screen, percent inhibition; read by cleavage of a fluorogenic dipeptide substrate; higher = more effect of the substance).
Set-up: species or system P. falciparum D10 trophozoite lysates; single well
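Note: 30 min substrate incubation versus DMSO and 10 µM JCP410 controls.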

Chain of DPAP1 (Q8IIJ9 whole entry, looked up): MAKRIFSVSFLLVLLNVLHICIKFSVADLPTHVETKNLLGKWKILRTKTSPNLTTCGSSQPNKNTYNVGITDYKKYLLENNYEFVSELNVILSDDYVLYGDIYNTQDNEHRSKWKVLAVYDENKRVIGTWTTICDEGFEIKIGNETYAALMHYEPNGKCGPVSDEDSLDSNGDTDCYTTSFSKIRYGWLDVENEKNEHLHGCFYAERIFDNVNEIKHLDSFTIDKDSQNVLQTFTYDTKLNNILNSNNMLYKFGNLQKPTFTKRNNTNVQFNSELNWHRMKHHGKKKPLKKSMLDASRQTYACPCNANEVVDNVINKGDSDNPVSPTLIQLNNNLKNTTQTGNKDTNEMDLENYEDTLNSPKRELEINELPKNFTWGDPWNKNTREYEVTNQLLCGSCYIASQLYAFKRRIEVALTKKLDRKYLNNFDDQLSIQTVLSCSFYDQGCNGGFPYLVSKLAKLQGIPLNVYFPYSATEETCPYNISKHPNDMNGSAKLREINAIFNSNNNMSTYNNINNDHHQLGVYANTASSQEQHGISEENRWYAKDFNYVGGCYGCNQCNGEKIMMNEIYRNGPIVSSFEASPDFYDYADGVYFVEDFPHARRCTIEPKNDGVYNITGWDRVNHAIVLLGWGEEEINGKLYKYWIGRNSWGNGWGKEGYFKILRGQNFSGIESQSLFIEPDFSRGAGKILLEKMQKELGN

Question: `CC(=O)C1=C(C)NC(c2cccc([N+](=O)[O-])c2)NC1c1cccc([N+](=O)[O-])c1` (stereo not shown) was tested. Which “% Inhibition @ 10 uM” value did it give?
Answer: -0.0217%

Question: How did the “% Inhibition @ 10 uM” value turn out when `Cc1ccccc1/C=C\C(=O)NCC(=O)O` was run?
Answer: -0.971%

Question: How did the “% Inhibition @ 10 uM” value turn out when `Cc1nc(C)c(C(=O)NC(C)c2ccccc2)s1` (stereo not shown) was run?
Answer: 4%

Question: `CC(C)C[C@H](NC(=O)N[C@@H](C)c1ccccc1)C(=O)NCC#N` was tested. Which “% Inhibition @ 10 uM” value did it give?
Answer: -4.72%

Question: With `CCOC(=O)c1c(C)n(C)c2ccc(OCC(O)CN3CCN(Cc4ccccc4)CC3)cc12` (stereo not shown) as the molecule, how does the “% Inhibition @ 10 uM” value read?
Answer: 2.1%

Question: How did the “% Inhibition @ 10 uM” value turn out when `COc1cccc(OC)c1C(=O)Nc1ccc(C)cc1C` was run?
Answer: -3.04%

Question: With `COc1ccc(N(CC(=O)Nc2ccccc2Cl)S(=O)(=O)c2ccc(NC(C)=O)cc2)cc1` as the molecule, how does the “% Inhibition @ 10 uM” value read?
Answer: 5.25%

Question: How did the “% Inhibition @ 10 uM” value turn out when `COc1ccc2c(CNCCc3ccccc3Cl)c(C(=O)O)n(Cc3cccc(F)c3)c2c1` was run?
Answer: 2.11%

Question: For `COc1ccc(N(CC(=O)Nc2ccc(C)cc2C)S(C)(=O)=O)cc1`, which “% Inhibition @ 10 uM” value is on record?
Answer: 0.00477%

Question: For `CCOC(=O)CN1CCN(c2ccc(Cl)cc2)CC1`, which “% Inhibition @ 10 uM” value is on record?
Answer: -6.47%

Question: With `Cc1c(C)n(Cc2ccc(F)cc2)c2ccc(C(=O)NCCCN3CCOCC3)cc12` as the molecule, how does the “% Inhibition @ 10 uM” value read?
Answer: -1.92%

Question: With `O=C(Nc1cccc2nsnc12)c1ccc(Cl)cc1Cl` as the molecule, how does the “% Inhibition @ 10 uM” value read?
Answer: -0.0619%

Question: `N#CC1=C(N)Oc2c(ccc3ccccc23)C1c1ccc(Cl)cc1Cl` (stereo not shown) was tested. Which “% Inhibition @ 10 uM” value did it give?
Answer: -2.42%

Question: Which “% Inhibition @ 10 uM” value does the source give for `Cc1ccsc1CN1CCN(c2ccc(F)cc2)CC1` here?
Answer: -5.68%

Question: With `Cc1cc2oc(=O)cc(C)c2c2occ(C(C)(C)C)c12` as the molecule, how does the “% Inhibition @ 10 uM” value read?
Answer: 2.21%

Question: `CCC(C#CC(O)(c1ccccc1)c1ccccc1)(CC)N(C)C` was tested. Which “% Inhibition @ 10 uM” value did it give?
Answer: -2.15%

Question: How did the “% Inhibition @ 10 uM” value turn out when `N#CC1=C(N)Oc2nc(-c3ccccc3)[nH]c2C1c1ccc(Cl)c(Cl)c1` (stereo not shown) was run?
Answer: 12.5%

Question: With `Cc1cccc(N2CN=c3s/c(=C\c4ccccn4)c(=O)n3C2)c1` as the molecule, how does the “% Inhibition @ 10 uM” value read?
Answer: -1.6%

Question: How did the “% Inhibition @ 10 uM” value turn out when `Nc1ncc(Cc2ccc(Cl)cc2Cl)s1` was run?
Answer: -1.6%

Question: `CCN1CCCC1CNC(=O)c1cccc(Cl)c1` (stereo not shown) was tested. Which “% Inhibition @ 10 uM” value did it give?
Answer: 4.88%

Question: Which “% Inhibition @ 10 uM” value does the source give for `COc1ccc(C2=C(C)C(N3CCN(C(=O)c4ccco4)CC3)=NS2(=O)=O)cc1` here?
Answer: -1.08%

Question: For `O=C1CC2Sc3ccccc3N=C2N1CN1C(=O)c2ccccc2C1=O` (stereo not shown), which “% Inhibition @ 10 uM” value is on record?
Answer: 0.0265%

Question: `CC(CCc1ccccc1)Nc1ncnc2onc(-c3ccc(F)cc3)c12` (stereo not shown) was tested. Which “% Inhibition @ 10 uM” value did it give?
Answer: 3.26%

Question: Which “% Inhibition @ 10 uM” value does the source give for `COc1ccc(C(=O)Nc2ccccc2C(N)=O)cc1S(=O)(=O)N1CCCC1` here?
Answer: 3.81%

Question: How did the “% Inhibition @ 10 uM” value turn out when `COc1cc(/C=C2\SC(N3CCCC(C)C3)=NC2=O)ccc1O` (stereo not shown) was run?
Answer: 7.73%

Question: With `Cc1cc(Cl)ccc1NC(=O)CCN1C(=O)c2ccccc2C1=O` as the molecule, how does the “% Inhibition @ 10 uM” value read?
Answer: -5.34%

Question: With `O=C(O)c1cc([N+](=O)[O-])ccc1C(=O)Nc1cccc(O)c1` as the molecule, how does the “% Inhibition @ 10 uM” value read?
Answer: -8.11%

Question: For `Oc1nc2ccc(Cl)cc2c(O)c1-c1ccccc1`, which “% Inhibition @ 10 uM” value is on record?
Answer: -1.07%

Question: Which “% Inhibition @ 10 uM” value does the source give for `COc1ccc(OC)c(S(=O)(=O)N2CCCC2C(=O)N2CCc3ccccc3C2)c1` (stereo not shown) here?
Answer: -4.11%

Question: `CSc1ncnc2c1oc1nc(-c3ccccc3)cc(C)c12` was tested. Which “% Inhibition @ 10 uM” value did it give?
Answer: 1.31%

Question: With `COc1ccccc1CNc1sc(S(C)(=O)=O)nc1S(=O)(=O)c1ccc(Cl)cc1` as the molecule, how does the “% Inhibition @ 10 uM” value read?
Answer: -2.25%

Question: How did the “% Inhibition @ 10 uM” value turn out when `CC(NC(=O)[C@@H](c1ccccc1)N1Cc2ccccc2C1=O)c1ccc2c(c1)OCCO2` (stereo partly shown) was run?
Answer: -0.465%

Question: With `O=C(CC12CC3CC(CC(C3)C1)C2)OCCNC(=O)c1cccnc1` as the molecule, how does the “% Inhibition @ 10 uM” value read?
Answer: -11.4%

Question: For `O=C(NC(=O)C1CCNCC1)c1cc2c(s1)CSC2`, which “% Inhibition @ 10 uM” value is on record?
Answer: 0.44%

Question: With `COc1ccc(CCNC(=O)Cn2cnc3c(nnn3Cc3ccccc3F)c2=O)cc1OC` as the molecule, how does the “% Inhibition @ 10 uM” value read?
Answer: -5.79%

Question: For `COC(=O)c1ccc(CSc2nnc(CNC(=O)c3cccs3)o2)o1`, which “% Inhibition @ 10 uM” value is on record?
Answer: -1.58%

Question: With `COC(=O)c1ccc(Oc2nc(N3CCCCC3)nc(N3CCCCC3)n2)cc1` as the molecule, how does the “% Inhibition @ 10 uM” value read?
Answer: 5.2%

Question: For `COc1ccc(C2CC(c3ccccc3)=NN2S(=O)(=O)c2ccccc2)c(OC)c1` (stereo not shown), which “% Inhibition @ 10 uM” value is on record?
Answer: 4.76%

Question: With `CCOC(=O)c1c(C)n(-c2ccc(C)cc2)c2ccc(OCC(O)CNCC3CCCO3)cc12` (stereo not shown) as the molecule, how does the “% Inhibition @ 10 uM” value read?
Answer: 0.275%

Question: `O=C(Cn1ccc2ccccc2c1=O)NCCC(=O)N1CCN(C2CCCCC2)CC1` was tested. Which “% Inhibition @ 10 uM” value did it give?
Answer: 1.5%

Question: For `CN1C(=O)C(=Cc2ccccc2Cl)C(=O)N(C)C1=O`, which “% Inhibition @ 10 uM” value is on record?
Answer: -2.32%

Question: How did the “% Inhibition @ 10 uM” value turn out when `COCc1cc(C)nc2sc(C(O)c3ccccc3)c(NC(=O)c3ccccc3)c12` (stereo not shown) was run?
Answer: -3.34%

Question: For `N#Cc1cc(Oc2ccc(Br)cc2)nc2ccccc12`, which “% Inhibition @ 10 uM” value is on record?
Answer: -3.75%

Question: For `CCCCNC(=O)C1CCN(S(=O)(=O)N(CC)CC)CC1`, which “% Inhibition @ 10 uM” value is on record?
Answer: -2.26%

Question: For `CCn1c(C)c(C)c2cc(C(=O)N3CCCC3)ccc21`, which “% Inhibition @ 10 uM” value is on record?
Answer: -0.48%

Question: How did the “% Inhibition @ 10 uM” value turn out when `CCOc1cc(/C=C2/SC(=O)N(C(C)C)C2=O)ccc1O` was run?
Answer: -5.14%

Question: `COc1ccc(C(=O)/C=C/c2ccccc2Br)c(OC)c1` was tested. Which “% Inhibition @ 10 uM” value did it give?
Answer: 8.76%

Question: How did the “% Inhibition @ 10 uM” value turn out when `Cc1cccc(C)c1NC(=O)C1CCCN1S(=O)(=O)c1ccc(Cl)cc1` (stereo not shown) was run?
Answer: 5.07%

Question: `CC(C)c1ccc(/C=C2\SC(N3CCOCC3)=NC2=O)cc1` was tested. Which “% Inhibition @ 10 uM” value did it give?
Answer: 0.755%

Question: `CSc1nc(-c2ccccc2)c2ccccc2n1` was tested. Which “% Inhibition @ 10 uM” value did it give?
Answer: 7.25%

Question: With `CC(CCc1ccccc1)N1CCOCC1` (stereo not shown) as the molecule, how does the “% Inhibition @ 10 uM” value read?
Answer: -3.6%

Question: Which “% Inhibition @ 10 uM” value does the source give for `CCCCN(CCCC)S(=O)(=O)c1ccc2nc(O)ccc2c1` here?
Answer: -2.67%

Question: With `Cc1ccc(Oc2nc3c(C)cccn3c(=O)c2/C=C(\C#N)C(=O)NC2CCS(=O)(=O)C2)cc1` (stereo not shown) as the molecule, how does the “% Inhibition @ 10 uM” value read?
Answer: 2%

Question: Which “% Inhibition @ 10 uM” value does the source give for `Cc1c(C(=O)NCc2ccccc2Cl)oc2ccc(S(=O)(=O)N3CCOCC3)cc12` here?
Answer: -6.5%

Question: `CCc1nn(CCCC(=O)NC2CCN(Cc3ccccc3)CC2)c(=O)c2cc3occc3n12` was tested. Which “% Inhibition @ 10 uM” value did it give?
Answer: -3.79%

Question: Which “% Inhibition @ 10 uM” value does the source give for `Cc1ccc(-c2nnn3c2nc(NCc2ccccc2)c2ccccc23)cc1` here?
Answer: 5.09%

Question: `COc1cc(CC(C)N2CCSCC2)ccc1O` (stereo not shown) was tested. Which “% Inhibition @ 10 uM” value did it give?
Answer: 1.9%

Question: With `CCOc1ccc(-c2cn3nc(CC)sc3n2)cc1` as the molecule, how does the “% Inhibition @ 10 uM” value read?
Answer: -1.16%

Question: For `CC(CNC(=O)Cn1ncc2c(Cl)cccc21)c1ccccc1` (stereo not shown), which “% Inhibition @ 10 uM” value is on record?
Answer: -1.11%

Question: `C=Cc1ccc(Cn2c(C(=O)O)c(CNCc3ccccc3Br)c3ccccc32)cc1` was tested. Which “% Inhibition @ 10 uM” value did it give?
Answer: 5.43%

Question: Which “% Inhibition @ 10 uM” value does the source give for `C1CCCC(NCCCN2CCOCC2)CCC1` here?
Answer: -1.81%

Question: Which “% Inhibition @ 10 uM” value does the source give for `COc1cccc(/C=N\n2c(C)nnc2C)c1O` here?
Answer: -2.13%

Question: `CC[C@H](NC(=O)[C@H](CC1CCCCC1)OC(=O)N1CCOCC1)C(=O)c1nc2ccccc2o1` was tested. Which “% Inhibition @ 10 uM” value did it give?
Answer: -0.207%

Question: How did the “% Inhibition @ 10 uM” value turn out when `OCCN1CCN(CCOC2c3ccccc3CSc3ccc(Cl)cc32)CC1` (stereo not shown) was run?
Answer: -2.98%
